In article PMC10507807, “De novo design of a stapled peptide targeting SARS-CoV-2 spike protein receptor-binding domain” (RSC Medicinal Chemistry, 2023):
Starred links: 1 amine or outer side, 2 acyl side, 3 side chain; linkers in the order of their positions; H or OH if unused. Positions of bridges follow the written chain, without caps; N, C: chain ends. Non-standard residues stand in square brackets, D forms with d. Residues, ends and D or L forms follow the SMILES beside them. X1 = C[C@@](CC=[*:3])(N[*:1])C(=O)[*:2]

Target: biotinylated recombinant SARS-CoV-2 spike protein RBD (Severe acute respiratory syndrome coronavirus 2, UniProt P0DTC2)
Experiment: Bio-layer interferometry, spike protein RBD
Type: binding
Conditions: BLI, FortéBio BLItz; RBD on SAX biosensor; pep39 120, 48, 24, 4.8, 0.48 μM; PBS; association 120 s, dissociation 120 s; global fit 1:1, BLItz Pro 1.1; read-out: KD (dissociation constant)

Compound: CSCC[C@@H]1NC(=O)[C@H](CC(N)=O)NC(=O)[C@@H]2CC(=O)NCCCC[C@H](NC(=O)[C@H](Cc3c[nH]c4ccccc34)NC(=O)[C@@H](NC(=O)[C@H](CCCCN)NC(=O)[C@H](Cc3ccc(O)cc3)NC(=O)[C@H](CC(C)C)NC(=O)[C@H](Cc3c[nH]c4ccccc34)NC(=O)[C@H](CCC(=O)O)NC(=O)[C@@H](NC(=O)CNC(C)=O)[C@@H](C)O)C(C)C)C(=O)N[C@@H](C)C(=O)N[C@@H](Cc3ccccc3)C(=O)N[C@@](C)(C/C=C/C[C@@](C)(C(=O)O)NC1=O)C(=O)N2 [pep39] (Ac-GTEWLYKVWKAF[X1]DNM[X1]-OH; lactam 10-14; staple (E) 13-17)
- Kd: 0.57 ± 0.05 µM
